Measured values from paper PMC11360281 (Viruses, 2024).

Legend:
Assay in all cases: microbe, parasite or virus in culture
Format in all cases: cell-based
[1] = tested on: HCV genotype 1a (strain H77S.3); conditions: Hepatitis C virus, Huh-7, read-out: EC50 GT 1a
[2] = tested on: HCV GT 1b (Con1) replicon; conditions: Hepatitis C virus, GT1B
[3] = tested on: wild-type HCV GT 1b full-length RNA (HCV-N.2-GLuc); conditions: for EC50: Hepatitis C virus, GT1B, wild-type HCV-N.2-GLuc

Row | Structure (SMILES) | EC50 [1] [µM] | EC50 ([2]; Huh-5-2, DMSO-adapted Huh5-2 replicon cells, 30 passages) [µM] | EC50 ([2]; Huh-5-2, Huh5-2 replicon cells adapted with Cmp 36 25xEC50, 30 passages) [µM] | EC50 ([3]; Huh-5-2, cured DMSO-adapted cells) [µM] | EC50 ([3]; Huh-5-2, cured cells previously adapted with 36 (25xEC50)) [µM] | 36/DMSO EC50 ratio ([3]; cured 36-adapted vs cured DMSO-adapted cells)
1 | O=C1Cn2c(cc3cc(Cl)ccc32)C(=O)N1O [Compound 30] | 2.79 ± 0.48 | – | – | – | – | –
2 | O=C1Cn2c(cc3cccc([N+](=O)[O-])c32)C(=O)N1O [Compound 36] | 2.57 ± 0.34 | 3.13 ± 0.56 | 11.5 ± 2.77 | 3.04 ± 0.13 | 3.53 ± 0.19 | 1.16
